Source: PubChem BioAssay AID686979 (National Center for Advancing Translational Sciences (NCATS), 2013)
In all, about 420,000 compounds went through this assay and about 50,000 (12%) were called active. The inconclusive results got no clear call from the source; some entries with a clear call stand among them for comparison. Calls come from the whole dose curve; as a rule, active = well fitted inhibition curve with a large enough effect; inconclusive = small, poorly fitted or top-dose-only effect; inactive = flat fitted curve, though single readings scatter. No potency is given beside an inconclusive call; the fits are too rough. Where a SMILES comes first, the peptide text is derived from it. The star is where a group is joined. Cbz = O=C(OCc1ccccc1)*

Assay: qHTS for Inhibitors of human tyrosyl-DNA phosphodiesterase 1 (TDP1): qHTS in cells in presence of CPT; note: nearly all actives have a fitted effect of over 55% in size
Settings: chicken DT40 Tdp1-/-;hTDP1 cells + 20 nM CPT, ATP luminescence, 48 h; activity change, negative = growth inhibition: at 46.2 µM (top of the series) unless noted
Summary of the method: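 Chicken DT40 Tdp1-/- cells complemented with human TDP1, 400 cells/well, exposed to compounds plus 20 nM camptothecin for at least 48 h at 37 C; viability read as ATP content by CellTiter-Glo luminescence.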
% is set by controls: 0 for no effect and ±100 for the full control effect; potency is the fitted concentration of half-maximal effect; tags give direction and shape of the fitted curve.

| SMILES | Potency | activity change, negative = growth inhibition |
| --- | --- | --- |
| Cc1ccc(C(=O)c2cn(Cc3cccc(C)c3)c3nc(C)ccc3c2=O)cc1 | inconclusive [inhibitor, single point] | – |
| Cc1cc(C(=O)N2CCN(c3ccc([N+](=O)[O-])cc3)CC2)c(C)o1 | inconclusive [inhibitor, single point] | – |
| COc1cc(S(=O)(=O)N(Cc2cccnc2)Cc2cccc(OC)c2OC)ccc1-n1cnnn1 | active: 16.4 µM | – |
| COc1ccc(-c2cc(C(F)(F)F)n3nc(C(=O)Nc4c(C)n(C)n(-c5ccccc5)c4=O)cc3n2)cc1 | inactive | – |
| COC(=O)CCC(NC(=O)OCc1ccccc1)C(=O)NC(CC(C)C)C(=O)OC (centres undefined) (Cbz-Glu(OMe)-Leu-OMe; configuration not given here) | – | inconclusive: -33.6% [inhibitor] |
| COc1cccc(CN2CC(C(=O)NCc3ncc(C)[nH]3)CCC2=O)c1 (centres undefined) | inactive | – |
| CCN(Cc1ccccc1)c1ccc(/C=N/N2CCOCC2)cc1 | inactive | – |
| O=C(CS(=O)(=O)Nc1ccc(F)cc1Cl)Nc1ccc(F)cc1Cl | inactive | – |
| CCOc1ccccc1CN(CCc1ccc2c(c1)OCO2)Cc1ccccn1 | inconclusive [inhibitor, single point] | – |
| COc1ccc(NC(=O)CCCCC(=O)Nc2ccc(OC)cc2)cc1 | inactive | – |
| O=C(C[n+]1ccccc1)N/N=C/c1cc(Br)ccc1O | inactive | – |
| CC(C)Oc1ccc(C(=O)Nc2cc(S(=O)(=O)N3CCOCC3)ccc2N2CCOCC2)cc1 | inconclusive [inhibitor, single point] | – |
| CN(Cc1ccccc1)C(=O)CN1C(=O)NC(C)(c2ccc(C(C)(C)C)cc2)C1=O (centres undefined) | inconclusive [inhibitor, partial curve] | – |
| C=CCN(CC=C)C(=S)NC(=O)c1ccc([N+](=O)[O-])cc1 | active: 5.8 µM | – |
| CCOC(=O)N(C(=O)c1ccccc1)c1ccccc1 | inconclusive [inhibitor, single point] | – |
| Cc1cc(C)n2c(Nc3ccc4c(c3)OCCO4)c(-c3ccc(Cl)cc3)nc2n1 | inconclusive [inhibitor, single point] | – |
| Cc1cc(N2CCN(Cc3ccc4c(c3)OCO4)CC2)n2ncnc2n1 | inconclusive [inhibitor, single point] | – |
| Cc1nn(CC(=O)OCC(=O)NCCc2ccc(S(N)(=O)=O)cc2)c(C)c1[N+](=O)[O-] | inactive | – |
| C=CCN(CC=C)S(=O)(=O)c1ccc(F)cc1 | inactive | – |
| CC(OC(=O)CCNS(=O)(=O)c1cccs1)C(=O)Nc1ccc(S(N)(=O)=O)cc1 (centres undefined) | inactive | – |
| COCCNC(=O)C1(C)CCCN(Cc2ccc3ccccc3c2Br)C1 (centres undefined) | inconclusive [inhibitor, partial curve, poor fit] | – |
| CCCc1nc2c3ccccc3ccn2c1CC(C)(C)C | active: 9.2 µM | – |

| SMILES | Potency | activity change, negative = growth inhibition |
| --- | --- | --- |
| COc1ccc(-c2[nH]ncc2CN2CCC(C(=O)c3ccc(F)cc3)CC2)cc1 | inconclusive [inhibitor, single point] | – |
| CC(=O)Nc1cnc(-c2cccc(C(=O)N3CCOCC3)c2)cn1 | inactive | – |
| O=C(CN1C(=O)C2C3C=CC(C3)C2C1=O)OCC(=O)c1ccc(Cl)cc1 (centres undefined) | inactive | – |
| CC(C)c1ccc(NC(=O)Nc2nc(C(N)c3ccccc3)cs2)cc1 (centres undefined) | inconclusive [inhibitor, single point] | – |
| CC(=NNC(=O)c1ccncc1)c1cccc(Br)c1 | inactive | – |
| CCn1c(C)cc(/C=C2/SC(=O)N(C(C)C(=O)OC)C2=O)c1C (centres undefined) | inconclusive [inhibitor, single point] | – |
| Cc1cc2cc(CCNC(=O)c3ccc(C)c([N+](=O)[O-])c3)c(=O)[nH]c2cc1C | inconclusive [inhibitor, single point] | – |
| COC(=O)c1ccc(S(=O)(=O)N(Cc2ccccc2)Cc2ccccc2)n1C | inconclusive [inhibitor, single point] | – |
| COc1ccc2sc(-c3ccccc3OC)c(C#Cc3cncn3C)c2c1 | inconclusive [inhibitor, single point] | – |
| COc1ccc(CC(=O)Nc2ccc(-c3nc4cc(C)ccc4o3)c(O)c2)cc1OC | inconclusive [inhibitor, partial curve] | – |
| CN(C)c1ccc(C(CNC(=O)COc2ccc(Cl)cc2)N2CCCC2)cc1 (centres undefined) | inconclusive [inhibitor, single point] | – |
| C=CCNCC(=O)N1N=C(c2ccc3ccccc3c2)CC1c1ccc(OC)cc1 (centres undefined) | active: 8.2 µM | – |
| COc1ccc(CN2CCC2(C)C(=O)NCc2ccc3c(c2)OCO3)c2ccccc12 (centres undefined) | active: 23.1 µM | – |
| Cc1cc(C)c2nc(N3CCC(C(=O)N4CCN(C(=O)c5ccco5)CC4)CC3)sc2c1 | inconclusive [inhibitor, single point] | – |
| Cn1c(SCC(=O)NCCc2ccccc2)ncc(C(=O)Nc2ccc(F)cc2)c1=O | inconclusive [inhibitor, single point] | – |
| CCCCCCCCN1C(=O)[C@H](CC(=O)N2CCN(C(=O)C3CC3)CC2)C[C@@]2(C(=O)OC)CCCCC=C12 | inconclusive [inhibitor, single point] | – |
| Cc1cccc(C)c1NC(=O)CN(C)C(=O)CC1CC2CCC1C2 (centres undefined) | inactive | – |
| COC(=O)c1c(Oc2ccc(OC)cc2)nnc(-c2ccccc2)c1-c1ccccc1 | inconclusive [inhibitor, single point] | – |
| CCc1ccc2[nH]c(=O)c(CN(CCN(C)C)C(=S)NCc3ccco3)cc2c1 | inconclusive [inhibitor, single point] | – |
| O=C(NCc1ccco1)c1cc(-c2cccs2)nc2ccccc12 | inconclusive [inhibitor, single point] | – |
| CCCn1c(SCC(=O)Nc2ccc(NC(C)=O)cc2)nc2c1c(=O)n(C)c(=O)n2C | inconclusive [inhibitor, full curve] | – |
| COc1ccc(OC)c(N(CC(=O)NCCSCc2ccc(C)cc2)S(C)(=O)=O)c1 | inactive | – |
